The campaign covered roughly 52,000 compounds. About 4,300 (8.3%) were called active. Cut-off read from the data, not from the text of the source: active = survival mostly below about 52% (no sharp cut-off); inactive = mostly above about 56%. Some of the results follow.
The compounds below were run on DeltatarO mutant (assay: growth inhibition of S. aureus wild type versus tarO mutant, primary screen, teichoic acid synthesis inhibitors, RN4220, OD600 (AID 463173)). Details: OD600, 18 h, hits give low values, screened at 18.75 µg/mL (by protocol).

SMILES | survival
CC(C)(C)OC(=O)N1CCC(c2c(C(=O)NCCc3ccccc3)cnn2-c2ccc(F)cc2)CC1 | inactive: 88%
Cc1ccc(-n2c(=O)c3c(cnn3C)n(Cc3ccccc3F)c2=O)cc1 | inactive: 89%
Cc1ccccc1-c1noc(-c2ccc(N3CCOCC3)c([N+](=O)[O-])c2)n1 | inactive: 62%
Cn1c2ccccc2c2cnn(CC(=O)Nc3ccccc3C(F)(F)F)c(=O)c21 | inactive: 80%
CCN(CC)C(=O)c1sc2c(c1C)c(=O)n(-c1ccc(OC)cc1OC)c(=O)n2CC(=O)c1ccc(Cl)cc1 | inactive: 135%
CCn1cc(S(=O)(=O)c2ccccc2)c(=O)c2cc(F)c(N3CCN(c4ccccc4)CC3)cc21 | inactive: 98%
O=C(Nc1ccc(OC(F)(F)F)cc1)C1CCN(S(=O)(=O)c2cccs2)CC1 | active: 21%
COc1cc(NC(=O)c2oc3c(c2C)-c2nn(Cc4cccc(Cl)c4)cc2CC3)cc(OC)c1 | inactive: 78%
CCOc1ccc(N(C(C)C(=O)Nc2cc(Cl)ccc2OC)S(C)(=O)=O)cc1 (configuration not stated) | inactive: 52%
Cc1ccccc1CCN(Cc1cc2c(C)ccc(C)c2[nH]c1=O)C(=O)c1cnccn1 | inactive: 98%
CN(C)c1ccc(/C=C(\C#N)c2nc(-c3ccc(Cl)c(Cl)c3)cs2)cc1 | inactive: 76%
COc1cc(NC(=O)COCc2cc(-c3ccc4c(c3)OCO4)on2)cc(OC)c1 | inactive: 118%
CC(C)Cn1c(=O)c2ccccc2n2c(CCC(=O)NC(C)c3ccccc3)nnc12 (configuration not stated) | inactive: 87%
Cc1onc(-c2c(Cl)cccc2Cl)c1C(=O)n1c(C)nc2ccccc21 | inactive: 86%
Cc1cc(C)c2nc(N(Cc3cccnc3)C(=O)c3cccs3)sc2c1 | inactive: 81%
CCOc1ccc(C2C(C(=O)Nc3ccccc3)=C(C)Nc3nc(SCc4cc(C)ccc4C)nn32)cc1 (configuration not stated) | inactive: 123%
N#Cc1ccc(C(=O)Nc2ccc3c(c2)N(C2CCCC2)C(=O)c2ccccc2S3)cc1 | inactive: 94%
COc1ccc(Cl)cc1NC(=O)C1CC(=O)n2c(nc3ccccc32)N1 (configuration not stated) | inactive: 90%
CCc1nn(CC(=O)Nc2ccc(N(CC)CC)cc2C)c(=O)c2cc3sccc3n12 | inactive: 77%
CC(C)Sc1ncc(Cl)c(C(=O)N(Cc2ccc(N(C)C)cc2)C2CCS(=O)(=O)C2)n1 (configuration not stated) | inactive: 69%
Cc1ccc(Cn2c(CN3CCC(C(=O)NCCc4ccccc4)CC3)cc3ccccc32)cc1 | inactive: 85%
Cc1ccc(-c2noc(-c3ccccc3NC(=O)C3CC(=O)N(c4ccccc4C)C3)n2)cc1 (configuration not stated) | inactive: 106%

SMILES | survival
CCn1ccc2c(OCC(=O)NCc3ccc(F)cc3)cccc2c1=O | inactive: 94%
O=C(NCCc1nc2ccccc2n1Cc1ccc(Cl)cc1Cl)c1ccco1 | active: 49%
COc1ccc(Nc2nc3ccc(C)cc3nc2-n2nc(C)cc2C)cc1Cl | inactive: 69%
COc1ccccc1N1CCN(C(=O)Cn2ncc3c2-c2cc(C)ccc2OC3)CC1 | inactive: 58%
COCCN1CCc2nc(SCC(=O)Nc3ccc(C)c(Cl)c3)[nH]c(=O)c2C1 | inactive: 76%
COc1ccccc1NC(=O)CC1Sc2ccc(C(F)(F)F)cc2NC1=O (configuration not stated) | inactive: 76%
CCOC(=O)c1cc2occc2n1CCc1ccccc1 | inactive: 101%
O=C(NCCCN=C1NS(=O)(=O)c2ccccc21)c1ccncc1 | inactive: 85%
Cc1ccc(-n2ncc(C(=O)Nc3ccc4c(c3)OCCO4)c2C2CCN(C(=O)OC(C)(C)C)CC2)cc1C | inactive: 87%
Oc1ccc(N=Cc2ccccc2O)cc1 | inactive: 109%
O=C(NC1CCCC1)c1cc2sccc2n1Cc1ccccc1 | inactive: 90%
COc1ccc(CNC(=O)c2cc(-c3ccc(Br)s3)nc3ccccc23)c(OC)c1 | inactive: 70%
CCOC(=O)c1sc2ncn(CC(=O)Nc3ccc(F)cc3F)c(=O)c2c1C | inactive: 117%
COC(=O)c1c(NC(=O)c2ccc(Cl)c(Cl)c2)sc2c1CCCC2 | inactive: 63%
CCOc1ccc(NC(=O)CSc2nnc3scc(-c4ccccc4)n23)cc1 | active: 17%
COc1ccc(-c2onc(C)c2C)cc1S(=O)(=O)NCc1cccs1 | inactive: 74%
CCOC(=O)c1noc2ncn(CC(=O)Nc3ccc(F)cc3Cl)c(=O)c12 | active: -5%
Cc1ccc(OCCSc2nc3ccccc3n2CC(=O)N2CCOCC2)cc1 | inactive: 96%
CC1=C(C(=O)OCc2ccc(C)cc2)C(c2ccccc2C(F)(F)F)CC(=O)N1 (configuration not stated) | inactive: 124%
CC1CCCCN1Cc1c(O)ccc2c(=O)c(-c3ccc(Cl)cc3)c(C(F)(F)F)oc12 (configuration not stated) | inactive: 138%
CCOc1ccc(C(=O)Nc2ccc3c(c2)CCCN3S(=O)(=O)c2ccc(C)cc2)cc1 | inactive: 78%
Cc1ccc(C(c2nnnn2C(C)(C)C)N2CCC(C)CC2)cc1 (configuration not stated) | inactive: 82%

SMILES | survival
COc1ccc(N(CC(=O)Nc2cc(OC)cc(OC)c2)S(=O)(=O)c2c(C)noc2C)cc1 | active: 45%
COc1ccccc1-c1nnc(C2CCN(C(=O)c3ccccc3C)CC2)o1 | inactive: 82%
Cc1cc2c(cc1S(=O)(=O)Nc1ccc(C(C)C)cc1)OCCN2C | inactive: 87%
Cc1ccc(O)c(NC(=O)CCS(=O)(=O)c2nc(-c3cccs3)cc(C(F)(F)F)n2)c1 | inactive: 51%
Cc1cccc(-n2c(C)cc(C(=O)C(=O)Nc3nncs3)c2C)c1 | inactive: 85%
COc1ccccc1NC(=O)c1cc2c(=O)n(Cc3cccs3)ccc2nc1C | inactive: 95%
Cc1ccc(C(C)C)c(OCC(=O)Nc2cc(-c3nc4ccccc4[nH]3)ccc2C)c1 | inactive: 71%
O=C(Nc1ccc(S(=O)(=O)N2CCCCC2)cc1)C(F)(F)F | active: 58%
O=C(Nc1ccccc1F)c1cnc(N2CCCCC2)c2ccccc12 | inactive: 99%
Cc1oc(-c2ccccc2F)nc1Cn1c(SCc2cccc(C(F)(F)F)c2)nc2ccncc21 | inactive: 60%
O=C1c2ccccc2NC2(CCCCC2)N1Cc1ccco1 | inactive: 111%
COc1ccc(OC)c(CNC(=O)CCCn2c(=O)c3cccn3c3cccnc32)c1 | inactive: 97%
CCOc1ccccc1NC(=O)Cn1c(=O)n(Cc2ccc(OC)cc2)c(=O)c2oc3ccccc3c21 | inactive: 63%
Cc1cc(C)cc(NC(=O)CSc2c(C(C)C)cnc3c2c(=O)n(C)c(=O)n3C)c1 | inactive: 67%
Cc1cc(C)cc(Nc2cc(C(=O)NC3CCCCC3)c3ccccc3n2)c1 | inactive: 116%
CCCCc1ccc(C(=O)Nc2ccc3nc(N4CCN(CC)CC4)cc(C)c3c2)cc1 | active: 36%
Cc1ccc(Nc2ncnc3ccccc23)cc1 | inactive: 109%
CCOC(=O)c1ccccc1NC(=O)CSc1nnc(CC)n2c1cc1occc12 | inactive: 63%
COc1ccc(C)cc1NC(=O)c1cc(S(=O)(=O)N2CCC(C)CC2)ccc1F | inactive: 98%
Fc1ccc(-c2cc3ncc4c(n3n2)-c2cc(Cl)ccc2OC4)cc1 | inactive: 65%
CCOC(=O)c1cc(C)n(CC2CCC(C(=O)Nc3ccc(OC)cc3)CC2)c1C (configuration not stated) | inactive: 105%
COc1ccc(CCNc2ncnc3c2c(-c2ccccc2)cn3-c2ccc(Cl)cc2)cc1OC | inactive: 97%

SMILES | survival
CCOC(=O)CSc1nc2ccc(NC(=O)c3ccc(Cl)cc3)cc2s1 | inactive: 83%
COC(=O)c1ccc(NC(=O)C2CCN(c3ncnc4c3nc3n4CCCCC3)CC2)cc1 | inactive: 84%
COc1cc(CN(C(=O)c2ccc(OC(C)C)cc2)c2ccccn2)cc(OC)c1OC | inactive: 102%
Cc1ccc(NC(=O)CN2C(=O)C(c3ccc(F)cc3)=NC23CCCCCC3)c(C)c1 | inactive: 85%
CCCCOc1ccc(C2C(=O)N(C3CCCCC3)CC(=O)N2C2CCCCC2)cc1 (configuration not stated) | inactive: 94%
Cc1ccc(NC(=O)C2CCN(S(=O)(=O)c3cccc4nsnc34)CC2)cc1 | inactive: 94%
CCn1cc(C(=O)OCC(=O)Nc2cc(Cl)ccc2C)c(=O)c2ccc(C)nc21 | inactive: 74%
O=S(=O)(c1ccc(S(=O)(=O)N2CCC3(CC2)OCCO3)cc1)N1CCCC1 | inactive: 91%
CC1CCN(S(=O)(=O)c2ccc3nc(NCc4ccc(N(C)C)cc4)ccc3c2)CC1 | inactive: 65%
CCc1cccc(NC(=O)Cn2c(=O)n(CCCCCC(=O)NCc3ccc(F)cc3)c(=O)c3sccc32)c1 | inactive: 63%
Nc1nonc1-c1nc2ccccc2n1CCn1c(-c2nonc2N)nc2ccccc21 | inactive: 82%
CCN(Cc1ccccc1)C(c1ccccn1)c1nnnn1C1CCCCC1 (configuration not stated) | inactive: 96%
CCOC(=O)N1CCc2c(sc3c2c(=O)n(-c2ccc(CC)cc2)c(=O)n3Cc2cccc(Cl)c2)C1 | inactive: 70%
Cc1ccc(C)c(N2CCN(C(=O)C3CCC(CNS(=O)(=O)c4cccs4)CC3)CC2)c1 (configuration not stated) | inactive: 78%
CCC1CN(C(=O)N2CCC(C(=O)NCCc3ccc(OC)c(OC)c3)CC2)c2ccccc2O1 (configuration not stated) | inactive: 74%
Cc1ccc(CNC(=O)CSc2c(C)cnc3c2c(=O)n(C)c(=O)n3C)cc1 | inactive: 83%
CC1=C(c2ccc(C)c(C)c2)S(=O)(=O)N(Cc2ccc(C(=O)NCc3ccccc3F)cc2)C1=O | inactive: 75%
COc1ccc(-c2cc(C(F)(F)F)n3nc(C)c(-c4ccccc4)c3n2)cc1OC | active: 69%
O=C(CCc1cn(Cc2ccc(F)cc2)c2ccccc12)NC1CCCCC1 | inactive: 79%
COc1ccc(C2C=C(c3ccccc3)Nc3nc(NC(C)=O)nn32)cc1 (configuration not stated) | inactive: 53%
CCn1nc(C)c2c(-c3ccccc3)cc(=O)n(C(C)C(=O)Nc3ccc(OC)c(OC)c3)c21 (configuration not stated) | inactive: 72%

Source: PubChem BioAssay AID463173 (ICCB-Longwood Screening Facility, Harvard Medical School, 2010)
